# Laboratory results as given in the supplement of paper PMC11417369.
# ± gives the standard deviation of the averaged measurements. Some of the results follow.
# System: PfAP2-G AP2 domain (GST-tagged)
# Experiment: gcPBM binding intensity (ln(normalized median fluorescence intensity)); higher = stronger DNA binding
# Method in brief: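 After 1 h on an Agilent 4 × 180k array of primer-extended double-stranded 36-bp intergenic genomic probes and negative controls, bound GST-tagged P. falciparum DNA-binding domains were detected with Alexa488 anti-GST antibody and scanned at 488 nm. The domains had been expressed in E. coli, and binding took place in 1× PBS with 1% milk, 0.2 mg/ml BSA, 0.5% salmon testes DNA and 0.03% Triton X-100. Binding intensity is the highest Masliner-normalised natural-log median intensity across replicate spots of either probe orientation.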
row,Sequence,gcPBM binding intensity (ln)
1,TATATACATTTTTATGTGCACATTTTATTTTTAAAT,10.8 ± 0.45
2,TTTTAATTTAAAAATTAATTTATATATATATATATA [TGCATGCA_negctrl_site447],9.73 ± 0.16
3,TTTAGACTTTTCTATAGTACATATTATATATATATA [XGTACX_site6532],10.7 ± 0.49
4,AGTGTATTAAATTTTGAACACACAAAATAAAACATA [CACACA_site8483],10.2 ± 0.2
5,ATTGAAAAACCGTTTAGTACATATCATCACGTTTGT [XGTACX_site1295],10.9 ± 0.52
6,TATATATATATATGTACACACATCAATCATATTAAC [CACACA_site1946],11.4 ± 0.95
7,TATATATATATATATACATGCATTTTTGTTTGCTTA [TGCATGCA_site256],9.88 ± 0.35
8,TTTTTTTTTTCTCCTGCATGCAGCATTTATATATTA [TGCATGCA_site390],10.1 ± 0.28
9,GACAACGTTTCAATGTGTACATATTTATAATATATA [XGTACX_site2427],11.5 ± 0.95
10,TACAAATATAGATGCACACACATATACATACCTATA [CACACA_site7094],10.1 ± 0.2
11,TTTTTACAAAAAAAAAAAAAAAAAATAAAAATAAAT [CACACA_negctrl_site1738],9.52 ± 0.028
12,TTTTTTTTTTTTTTTACACACTGCATACAAGAAAAA [CACACA_site5642],10.1 ± 0.49
13,AAAATACGAATATAAACATGCACCATATAGAACAAA [TGCATGCA_site925],10.2 ± 0.16
14,TAAAATAAAATAAGTAGTACATATATAATTATATAT [XGTACX_site6733],11.5 ± 1
15,GACGTGGAAAAAAAAACACACACAAAAAAAAAAAAA [CACACA_site9324],9.95 ± 0.42
16,TGAACATCATTTTTATGTACACACACATATACGTTG [XGTACX_site3864],11.4 ± 0.86
17,AAAACAAACAAAAAAAAAAAAAAAAATATCAATCTA [TGCATGCA_negctrl_site203],9.22 ± 0.27
18,TTTTTTAAATATTATTTTTATGAGTAAATATATTAT [GTGCAC_negctrl_site277],9.73 ± 0.028
19,ATATATCATGCCAAGGGTACAAATGTGTAGTTGAAA [XGTACX_site2820],11.1 ± 0.52

row,Sequence,gcPBM binding intensity (ln)
1,GAAAAAAAAAAAAAAAGTACATTCTCTATTTCATGT [XGTACX_site3209],11.3 ± 0.91
2,CGCGCACCCAGACACACACACACACCCATATATATA [CACACA_site2203],10.3 ± 0.4
3,ACGTATAATATGTACACACACATATATACCAAAAAA [CACACA_site4661],11.5 ± 1
4,GATAAAATAATATATAGTACTTTTTTAAAATAAATA [XGTACX_site522],11 ± 0.65
5,TAATTACCATATGGTACACACATATTTATAGGTATA [CACACA_site7603],11.2 ± 0.81
6,ATTTACAAAAATTTTGTATAAAGGGATTTTAAAATG [TGCATGCA_negctrl_site350],10.2 ± 0.14
7,TATAAAACACACACACATATATATATATATTTATAT [TGCATGCA_negctrl_site48],9.97 ± 0.16
8,AATTTTAAATTTAATTTACACACTTTTCATAGCATT [CACACA_site9264],10.01 ± 0.064
9,AGATGCCAAGTATAAAGTACATATCAAAATGTATAT [XGTACX_site456],11.1 ± 0.86
10,GAACAAAATTTTATATGTACATAATATTTATATATA [XGTACX_site3667],11.4 ± 0.8
11,TATATATACACACACACATGCATGCCGATATATATA [TGCATGCA_site29],10 ± 0.16
12,AAAAGATATTTGAATATACACACGATTTAAATTTAA [CACACA_site3865],9.8 ± 0.21
13,AAAGATTTAATCTATACATGCAAATATATAGAAAAG [TGCATGCA_site373],9.865 ± 0.021
14,AATAAAAATAGGAAATGTACACATATATATATATAT [XGTACX_site1853],11.2 ± 0.59
15,TTATTTTATTTTTATACACACATGTTTTAATGTTCA [CACACA_site249],9.9 ± 0.2
16,AAAACTTTTAAAATTTTGTATTCATTCCTTCAACAA [GTGCAC_negctrl_site697],9.78 ± 0.11
17,TTTATAATTCCATAATGTACAAATAAAATAAAAAAT [XGTACX_site663],10.9 ± 0.47
18,GTACAAAGGACTATACATAGAAAAATATATATATAT [XGTACX_negctrl_site164],10.6 ± 0.33
19,AGGAGGATAGTTCACAGTACCCAGTAACTCTACGAG [XGTACX_site2008],10.7 ± 0.41

row,Sequence,gcPBM binding intensity (ln)
1,AAAATTAATGTTGGTTGTACAAAAATTAAATATGGT [XGTACX_site66],11.3 ± 0.75
2,ATATATATATAAATATGTACATATATTTATTTCTTT [XGTACX_site3784],11.2 ± 0.76
3,GTGTGAGCACATTCGGGAGAGTTTTTTTTTTTTTTT [CACACA_negctrl_site1776],10.4 ± 0.24
4,TATAAAAATAAGCACACACACAAATATAGATTTATT [CACACA_site6558],10
5,AAAGTATATAGGATACGTACATACATAAATAAATAA [XGTACX_site8216],11.5 ± 0.83
6,GTACAAAATTGACAAGTGCAAAAATTAAAAGCAAGA [GTGCAC_site9838],10.9 ± 0.5
7,TGACATATAAAATATTCACACACAAGTTATAGTTCT [CACACA_site9209],9.74 ± 0.11
8,ACATTTTCTTATAAATGTACATATATATTATTATAT [XGTACX_site4404],11.1 ± 0.6
9,TATATTCAAAATGGTACACACAATATTTAATTGTGC [CACACA_site2631],11.1 ± 0.8
10,ACAAGTATTAATTACACACTCAAAAAGAAAAAACAA [CACACA_site2281],9.93 ± 0.028
11,TTAATAGAAATACGTGCACACTAAAGGGAAAACAAT [CACACA_site4923],10.7 ± 0.42
12,TGAATAAATATGCAGCGTACATAATCCTCTTAAAAT [XGTACX_site8462],11.1 ± 0.74
13,GTTAAATGAAAATATGTACACACTTGAAAATTTTTA [CACACA_site2924],11.5 ± 0.82
14,ATATATTCTATATATACATGCATATATATTATATGT [TGCATGCA_site185],9.84 ± 0.12
15,ATGTATCCAATAGGAGTGCATAATTCTATTAACACC,10.2 ± 0.18
16,AAAGAAAAAAAAAAAAAAAAAAAAAAAATTATACAT [CACACA_negctrl_site7],9.36 ± 0.042
17,TATATAAAATAATAATGTACTCATTAAAATTATAGA [XGTACX_site4507],11.1 ± 0.92
18,AAAAATAACATATAAACACACATATATATATATATA [CACACA_site3802],9.9 ± 0.35
